The whole screen tested about 46,000 compounds, of which about 60 (0.1%) were called active. Inconclusive results (about 3%) are left out. The call rests on the fitted dose curve; in most records, active means well fitted inhibition curve with a large enough effect; inconclusive means small, poorly fitted or top-dose-only effect; inactive means no such curve, though single readings can be large or run the other way. The list shows a part of the results.

The assay is described as follows: Primary qHTS assay for Inhibitors of ovarian cancer metastasis using an organotypic tumor microenvironment (TME) model. Further: nearly all actives have a fitted effect of over 65% in size.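 On activity change, negative = inhibition: plate controls were DMSO wells for no effect and tomatine positive control wells for full effect.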 Conditions: SKOV3ip1-GFP adhesion/invasion on 3D omental model, fluorescence; series mostly up to 45.8 µM; activity change, negative = inhibition: at the top concentration. The essentials: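 Primary human omental fibroblast/mesothelial 3D culture pre-formed 48 h. SKOV3ip1-GFP cells added with compounds (0.36-46 umol/L), incubated 2 h RT/16 h 37 C, fixed; GFP cells quantified at 488/509 nm.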
Turning to `Cc1ccc(CSc2nc3ccsc3c(=O)n2CCC(C)C)cc1`, the “activity change, negative = inhibition” value was inactive: 5.66%.
On to `O=C(CC1Oc2ccccc2NC1=O)NCc1ccc(F)cc1` (stereo not given), for which the compound was classed as inactive.
As for `COc1ccc(CC(=O)Nc2nnc3n2CCS3)cc1`, the “activity change, negative = inhibition” value is inactive: -2.75%.
Still for that read-out and setting: to `O=C(Nc1ccc(Br)cc1)c1ccc(Cl)c(S(=O)(=O)N2CCCCCC2)c1` belongs inactive: -5.13%.
As to `COc1cccc(NC(=O)c2sc3nc(C)c(C(=O)Nc4ccc(C)cc4C)c(-c4cccs4)c3c2N)c1`, the call was inactive.
For `Cc1ccc(-c2nc(-c3cc4cccc(OCc5cccc(F)c5)c4oc3=O)no2)cc1`, the result was inactive.
On the same count and under the same terms, the result for `CCOc1ccc(-n2c(Cc3ccccc3)nnc2SCc2nc(-c3cccs3)no2)cc1` reads “inactive”.
Regarding `COC(=O)CN1C(=O)C(C)(C)c2cc(S(=O)(=O)NCc3ccc(Cl)cc3)ccc21`, the “activity change, negative = inhibition” value is inactive: -7.5%.
Still for that read-out and setting: the result for `CCCCN(CCCC)C1=C(C(=O)c2ccccc2)N(CC)S(=O)(=O)c2ccccc21` reads inactive: 9.92%; that for `Cc1ccc2scc(N3CCN(c4cccc(C(F)(F)F)c4)CC3)c(=O)c2c1`, inactive: -7.6%.
On the same count and under the same terms, to `Cc1ccn2c(Nc3c(C)cccc3C)c(-c3ccc(Cl)s3)nc2c1` belongs inactive: 9.98%.
`Cc1cc(C)cc(NC(=O)C2CCN(S(=O)(=O)c3c(C)noc3/C=C/c3ccco3)CC2)c1`: the “activity change, negative = inhibition” value was inactive: -3.2%.
As to `Cc1ccc(Cl)cc1NC(=O)C(NS(=O)(=O)c1ccc2c(c1)CCC(=O)N2)c1ccccc1` (stereo not given), the “activity change, negative = inhibition” value is inactive: 2.19%.
Turning to `Cc1ccc2c(c1)c1c(c(=O)n(-c3ccccc3C)c(=O)n1Cc1cccc(F)c1)n2C`, the compound was called inactive.
Turning to `COc1ccc(-c2cn3nc(N4CCCC(C(=O)NCCCOC(C)C)C4)sc3n2)cc1` (stereo not given), the “activity change, negative = inhibition” value is inactive: -14.9%.
The same measure, in the same setting: to `CCC(=O)N1CCc2cc(S(=O)(=O)NC(Cc3ccccc3)C(=O)NCc3cccc(OC)c3)ccc21` (stereo not given) belongs inactive: 3.25%.
Still for that read-out and setting: the result for `COc1ccc2cc(CNc3ccccc3)c(=O)n(CC(=O)Nc3ccc(C(C)=O)cc3)c2c1` reads inactive: 4.22%; that for `COc1cccc(CNC(=O)CCn2c(=O)c3cccn3c3cccnc32)c1`, inactive: 7.36%.
With `Cc1ccccc1C(=O)NC(=O)Nc1ccc(-n2nc(C(F)(F)F)cc2C(F)(F)F)cc1`, the result was inactive.
For `CC1=C(c2ccc(F)cc2)S(=O)(=O)NC1=NCc1ccccc1Cl`, the “activity change, negative = inhibition” value is inactive: -1.23%.
For `CC(C)(C)C(=O)Nc1ccc2nc(SCc3ccccc3)sc2c1`, the outcome was inactive.
In the case of `CCc1ccc(NCc2cc3cc(OC)c(OC)cc3n(CC(=O)Nc3ccc(F)cc3)c2=O)cc1`, the “activity change, negative = inhibition” value was inactive: 40.2%.
On the same count and under the same terms, the result for `Cc1cccc(NC(=O)CC2C(=O)OCCN2Cc2ccccc2)c1` (stereo not given) reads inactive: -14.5%; that for `Cc1ccc(C(=O)CSc2nc(-c3ccccc3)nc3c2CCCC3)cc1C`, inactive: -6.33%.
In the case of `CCCN(CCC)c1cc(C)nc2nc(-c3ccc(Cl)cc3)nn12`, the outcome was inactive.
Regarding `Cc1ccc(NC(=O)C2CCN(C(=O)c3cnn(-c4ccccc4)c3-n3cccc3)CC2)cc1Cl`, the “activity change, negative = inhibition” value was inactive: 13.9%.
Take `Cc1ccc(Nc2nc(C(N)=O)c(NC(=O)c3ccccc3Br)s2)cc1`: the outcome was inactive.
With `Cc1ccc(CSc2nc3cccnc3n2Cc2ccc(C(=O)NCc3cccs3)cc2)cc1`, the “activity change, negative = inhibition” value was inactive: 1.25%.
Consider `Cc1nc2nc(NC(=O)C(C)C)[nH]n2c(=O)c1Cc1ccccc1`, for which the “activity change, negative = inhibition” value is inactive: -1.52%.
Still for that read-out and setting: the result for `CC(=O)c1ccc(NC(=O)CC2Sc3ccccc3NC2=O)cc1` (stereo not given) reads inactive: -12.2%; that for `COc1ccc(-c2csc3ncnc(Nc4cccc(F)c4)c23)cc1`, inactive: 2.61%; that for `Cc1cc(Oc2nc3ccccn3c(=O)c2/C=C(\C#N)c2nc3ccccc3s2)ccc1Cl`, inactive: -1.81%.
Same read-out and setting: to `COCC(C)NS(=O)(=O)c1ccc(N2CCCCS2(=O)=O)cc1` (stereo not given) belongs inactive: 4.71%; to `CC(CNC(=O)Cn1c(-c2cccs2)cc2cc(Cl)ccc21)c1ccccc1` (stereo not given), inactive: -29.4%.
`COc1cc(Cl)c(C)cc1NC(=O)CCn1cnc2onc(-c3ccc(F)cc3)c2c1=O`: the result was inactive.
As for `COc1cc(OC)cc(-c2ccc3ncc4ccc(=O)n(-c5ccc(N6CCNCC6)c(C(F)(F)F)c5)c4c3c2)c1`, the “activity change, negative = inhibition” value is inactive: 7.25%.
Same read-out and setting: the result for `CCN1C(C(=O)c2ccccc2)=C(NC(=O)c2ccc(Cl)cc2)c2ccccc2S1(=O)=O` reads inactive: -5.86%; that for `CCOC(=O)c1ccc(NC(=O)c2sc3nc4n(c(=O)c3c2C)CCC4)cc1`, inactive: 4.87%; that for `Cc1cccc(C)c1NC(=O)c1cc(S(=O)(=O)N2CCCc3ccccc32)ccc1F`, inactive: 0.637%.
Turning to `COc1cccc(C(=O)NCCc2sc(-c3cccc(C)c3)nc2C)c1`, the “activity change, negative = inhibition” value was inactive: 8.01%.
Turning to `Cc1ccc(-n2ccn(CC(=O)c3ccc(F)cc3)c(=O)c2=O)cc1C`, the compound was classed as inactive.
As for `CC(=O)N1CCCc2cc(S(=O)(=O)Nc3ccc(OC(F)(F)F)cc3)ccc21`, the “activity change, negative = inhibition” value is inactive: -0.459%.
Regarding `Cc1ccc(C)c(S(=O)(=O)c2cn(Cc3ccccc3)c3cc(N4CCCC4)c(F)cc3c2=O)c1`, the “activity change, negative = inhibition” value was inactive: 2.15%.
For `CCOc1ccc(NC(=O)Cn2c(=O)n(CC(=O)NCCc3ccccc3)c(=O)c3sccc32)cc1`, the “activity change, negative = inhibition” value is inactive: -21.7%.
Still for that read-out and setting: to `CC(C)c1ccc(NC(=O)C(Cc2ccccc2)n2cccc2)cc1` (stereo not given) belongs inactive: -7.52%.
In the case of `Cc1ccc2c(CC(=O)Nc3c(C(=O)c4ccc(F)cc4)oc4ccccc34)coc2c1C`, the compound was classed as inactive.
On the same count and under the same terms, to `CCn1cc(C(=O)NCc2ccc(Cl)cc2)c(=O)c2cc(S(=O)(=O)N3CCc4ccccc4C3)ccc21` belongs “inactive”.
Take `CC(=O)Nc1nonc1-c1nnc(SCC(=O)Nc2c(C)cccc2C)n1-c1ccccc1`: the “activity change, negative = inhibition” value is inactive: 22.7%.
In the case of `COc1ccc2c(CNCCc3ccco3)c(C(=O)O)n(Cc3ccc(F)cc3)c2c1`, the “activity change, negative = inhibition” value was inactive: 15%.
Consider `CCOC(=O)c1ccc(N2C(=O)c3[nH]nc(-c4ccccc4)c3C2c2ccc(C(C)C)cc2)cc1` (stereo not given), for which the outcome was inactive.
For `COc1cccc(NC(=O)c2oc3ccccc3c2NC(=O)c2ccc(OC(C)C)cc2)c1`, the “activity change, negative = inhibition” value is inactive: -14.2%.
Still for that read-out and setting: the result for `Cc1ccc(-n2[nH]c(C)c(N=Nc3cccc(-c4cccc(C(=O)O)c4)c3O)c2=O)cc1C` reads inactive: -7.52%.
On the same count and under the same terms, the result for `CN(C)c1ccc(NC(=O)CC(NCc2cccnc2)C(=O)O)cc1` (stereo not given) reads inactive: -10.6%; that for `Cc1ccccc1NC(=O)c1sc2nc3n(c(=O)c2c1C)N=C(c1ccccc1)CS3`, inactive: -9.31%; that for `COc1ccc2nc(N3CCN(C(=O)CS(=O)(=O)c4ccc(C)cc4)CC3)sc2c1`, inactive: -0.57%.
On to `COc1ccc(C)cc1NC1(c2ccccc2)C(=O)c2ccccc2C1=O`, for which the result was inactive.
As to `COc1ccc(OC)c(N(C)S(=O)(=O)c2ccc3c(c2)NC(=O)CC(=O)N3)c1`, the “activity change, negative = inhibition” value is inactive: 2.2%.
On the same count and under the same terms, to `Cc1ccc(-c2cnc(C3CC3)o2)cc1S(=O)(=O)Nc1ccc(F)cc1Cl` belongs inactive: -4.46%.
For the compound `O=c1c(-c2cc(-c3ccccc3)nc3c2COc2ccc(Cl)cc2-3)coc2ccccc12`, the call was inactive.
As to `COc1cccc(CNc2sc3c(c2C(=O)Nc2ccc(OC)cc2OC)CCC3)c1`, the “activity change, negative = inhibition” value was inactive: 3.19%.
On the same count and under the same terms, to `Cc1ccc(NC(=O)CCCn2c(=O)c3cccn3c3cccnc32)c(C)c1` belongs inactive: 0.733%; to `COc1ccc(-n2ccn3c(CC(C)(C)CC(=O)O)nnc3c2=O)cc1`, inactive: -18.2%; to `Cc1cccc(N2CCN(c3ccc4cc(S(=O)(=O)N5CCC(C)CC5)ccc4n3)CC2C)c1` (stereo not given), inactive: -0.471%.
On the same count and under the same terms, the result for `CC(=O)c1ccc(NC(=O)CSc2nccn2C2CCCC2)cc1` reads inactive: -5.88%; that for `CC(C)CNC(=O)C(=O)Nc1c2c(nn1-c1ccc(Cl)cc1)CSC2`, inactive: -26.7%.
On to `O=C(O)C(=O)Nc1cccc(C2=NN=N[N]2)c1`, for which the “activity change, negative = inhibition” value was inactive: -6.27%.
Turning to `Cc1nn(-c2cccc(Cl)c2)c2nc(-c3cccnc3)cc(C(F)(F)F)c12`, the “activity change, negative = inhibition” value was inactive: 4.34%.
The same measure, in the same setting: the result for `CC1CCN(S(=O)(=O)c2ccc3nc(Nc4cccc(F)c4)ccc3c2)CC1` reads inactive: -20.9%; that for `C[C@@H]1C(=O)O[C@H]2CC34[C@H]5C[C@@H](C(C)(C)C)C36[C@H](OC(=O)[C@@H]6O)O[C@@]4(C(=O)O5)[C@]21O` (stereo not given in full), inactive: 8.26%; that for `CC(C)CC(=O)Nc1cccc(-c2cn3cccnc3n2)c1`, inactive: -2.9%.
Turning to `CCCn1c(=O)c2sccc2n2c(CCCC(=O)N3CCN(c4ccc(OC)cc4)CC3)nnc12`, the result was inactive.
As for `COc1ccc(CNC(=O)c2cc3cccc4c3n2CC(C)S4)cc1` (stereo not given), the “activity change, negative = inhibition” value is inactive: 11.1%.
Take `CCOc1ccc(NC(=O)CSc2nc3ccccc3nc2N2CCOCC2)cc1`: the “activity change, negative = inhibition” value was inactive: -20.6%.
The same measure, in the same setting: to `O=c1c(N2CCN(c3ccc(F)cc3)CC2)csc2ccc(F)cc12` belongs inactive: 1.35%; to `COc1ccc(S(=O)(=O)NC(C)(C)CO)cc1-c1nnc2c3ccccc3c(C)nn12`, inactive: -1.94%; to `COc1ccc(-c2cc(C(F)(F)F)nc(SCCC(=O)Nc3ccc(F)cc3F)n2)cc1`, inactive: 11%.
Regarding `CCOCCCNC(=O)CN1C(=O)COc2ccc(S(=O)(=O)N3CCOCC3)cc21`, the call was inactive.
With `O=C(Nc1ccc(F)cc1F)c1ccc(-n2cnc3cccnc32)cc1`, the outcome was inactive.
The same measure, in the same setting: to `O=C(CSc1ccc2nc(-c3ccccc3)cn2n1)Nc1ccccc1` belongs “inactive”.
Take `CC(=O)c1ccc(NC(=O)CSc2nnc3c(n2)[nH]c2ccccc23)cc1`: the “activity change, negative = inhibition” value was inactive: 3.55%.
Same read-out and setting: the result for `CCOC(=O)c1ccc(N2C(=O)c3n[nH]c(-c4cccs4)c3C2c2cccc(O)c2)cc1` (stereo not given) reads inactive: 12.9%; that for `Clc1ccc(-c2nc3ncccn3c2Nc2ccc3c(c2)OCCO3)cc1`, inactive: 0.79%.
On the same count and under the same terms, the result for `O=C(CCC1N=C2c3ccccc3N=C(SCc3ccc(F)cc3)N2C1=O)N1CCN(c2ccccc2)CC1` (stereo not given) reads inactive: 6.52%; that for `N#Cc1c(-n2ncnc2-c2ccccc2Cl)sc2c1CCCCC2`, inactive: 2.95%.
Same read-out and setting: to `COc1ccc(N(C)C(=O)c2oc(=O)c3ccccc3c2-c2ccc(C)cc2)c(OC)c1` belongs inactive: -4.95%.
For the compound `CC1=C(C(=O)Nc2cccc(F)c2)C2(CCCCC2)OC1=O`, the “activity change, negative = inhibition” value was inactive: 1.63%.
Same read-out and setting: to `Cc1cccc(Nc2cc(C)nc3nc(-c4ccccc4)nn23)c1` belongs inactive: -3.28%.
With `CCOc1ccc(/C=C(\C#N)C(=O)Nc2sc3c(c2C(=O)OC)CCC3)cc1OC`, the compound was called inactive.
With `CCOC(=O)C1CCN(C(c2ccc(C)cc2)c2sc3nc(-c4ccco4)nn3c2O)CC1` (stereo not given), the “activity change, negative = inhibition” value is inactive: 0.323%.
On the same count and under the same terms, the result for `CC(C)c1ccc(CNC(=O)c2ccc(N3CCCC3)c(NC(=O)NCc3ccc(F)cc3)c2)cc1` reads inactive: 1.3%; that for `COC(=O)c1c(SCC(=O)Nc2ccccc2C(F)(F)F)[nH]c2ccc(Cl)cc2c1=O`, inactive: 4.92%; that for `Cc1ccc(CNC(=O)CCc2c(C)c3cc4c(C)coc4cc3oc2=O)cc1`, inactive: -7.5%.
On to `CCCOc1ccc(CNC(=O)CCCN2C(=O)CSc3c2c(C)nn3-c2ccccc2)cc1`, for which the result was inactive.
On to `COc1ccccc1C(=O)Nc1ccccc1C(=O)OCc1cc(=O)n2ccsc2n1`, for which the “activity change, negative = inhibition” value was inactive: -1.74%.
For the compound `CCOC(=O)c1sc(NC(=O)c2nc3nc(C)cc(C(F)F)n3n2)c(C(=O)OC(C)C)c1C`, the compound was called inactive.
